Experimental data as given in article PMC4336329 (PLoS ONE, 2015).
Hit rate of the full screen: of about 310,000 compounds, about 14,000 (4.5%) showed an effect of 50% or more. Effects have a minus sign here. This is one part of the list.

biological target: human ether-à-go-go-related gene (hERG) potassium channel (human, UniProt Q12809); experiment: primary screen, population patch clamp on CHO cells stably expressing hERG
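Further: peak tail current of the secondary pulse compared with the same well before compound.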

human ether-à-go-go-related gene (hERG) potassium channel, sequence (Q12809 whole entry, looked up): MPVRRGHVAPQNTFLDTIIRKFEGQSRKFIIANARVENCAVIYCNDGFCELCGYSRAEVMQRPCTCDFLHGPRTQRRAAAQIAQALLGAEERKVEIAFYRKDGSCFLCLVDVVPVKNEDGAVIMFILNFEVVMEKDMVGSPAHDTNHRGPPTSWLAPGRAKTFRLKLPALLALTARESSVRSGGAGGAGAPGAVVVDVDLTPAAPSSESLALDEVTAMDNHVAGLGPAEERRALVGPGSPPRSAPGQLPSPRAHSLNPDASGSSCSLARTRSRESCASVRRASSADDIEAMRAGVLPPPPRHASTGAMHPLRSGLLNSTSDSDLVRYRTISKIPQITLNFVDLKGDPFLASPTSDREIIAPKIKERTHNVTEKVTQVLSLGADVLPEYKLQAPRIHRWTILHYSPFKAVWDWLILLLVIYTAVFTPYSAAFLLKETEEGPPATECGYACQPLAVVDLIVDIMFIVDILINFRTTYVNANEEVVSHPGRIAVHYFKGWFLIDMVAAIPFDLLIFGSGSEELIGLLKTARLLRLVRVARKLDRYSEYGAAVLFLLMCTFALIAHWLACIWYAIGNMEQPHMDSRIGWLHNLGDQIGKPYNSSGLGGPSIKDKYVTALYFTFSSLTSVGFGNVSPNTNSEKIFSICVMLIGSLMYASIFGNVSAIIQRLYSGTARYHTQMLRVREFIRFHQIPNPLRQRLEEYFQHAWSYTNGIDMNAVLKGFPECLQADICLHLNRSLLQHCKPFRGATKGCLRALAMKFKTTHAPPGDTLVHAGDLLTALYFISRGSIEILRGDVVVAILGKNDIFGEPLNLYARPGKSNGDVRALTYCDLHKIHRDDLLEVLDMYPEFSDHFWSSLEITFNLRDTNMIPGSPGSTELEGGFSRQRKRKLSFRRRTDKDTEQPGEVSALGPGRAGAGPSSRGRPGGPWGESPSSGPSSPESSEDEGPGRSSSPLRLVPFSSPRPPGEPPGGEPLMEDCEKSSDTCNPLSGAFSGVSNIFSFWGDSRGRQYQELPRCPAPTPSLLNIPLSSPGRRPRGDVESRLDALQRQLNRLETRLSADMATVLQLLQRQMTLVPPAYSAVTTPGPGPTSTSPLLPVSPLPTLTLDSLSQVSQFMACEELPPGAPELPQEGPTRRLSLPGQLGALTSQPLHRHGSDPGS

Row | SMILES | hERG current change (%, negative = inhibition) at 10uM
1 | CCOC(=O)c1c(N)sc2c(OC)c(Br)ccc12 | 19%
2 | COc1ccc(N2C(=NC(=O)c3ccccc3)SC3CS(=O)(=O)CC32)cc1 (stereo not drawn) | 5.27%
3 | Cc1ccc(N2C(=O)c3ccc(C(=O)O)cc3C2=O)cc1C | -27.5%
4 | Cc1ccc(NC(=S)NNC(C)(C)C)cc1 | 10.1%
5 | O=C1CSc2nc3ccccc3n21 | 4.86%
6 | COc1ccc(C)cc1NCc1cccc(OC)c1OC | 1.13%
7 | COc1ccc(N2CCN(CC(O)COCc3ccccc3)CC2)cc1.Cl (stereo not drawn) | -25.2%
8 | COC(=O)C1=C(C(=O)OC)[C@@H]2N(Cc3ccccc3)c3ccccc3[C@@]23C[C@@H](C(=O)OC)N(C(=O)c2cc(C)oc2C)C3=N1 | -6.19%
9 | Cc1cccc(C)c1NC(=O)C1(C)c2cccc[n+]2CC(=O)N1Cc1cccs1.[I-] (stereo not drawn) | 6.18%
10 | CC1CC1C(=O)OCC(=O)Nc1ncc(Cl)cc1Cl (stereo not drawn) | -4.57%
11 | COc1ccc(-c2c(-c3cc(OC)cc(OC)c3)n(C)c3ccc(-c4ccc(N(C)C)nc4)cc23)cc1 | -1.26%
12 | CCOC(=O)c1c(-c2cccs2)csc1NC(=O)CN(CC)CC | 10%
13 | Cc1ccc(S(=O)(=O)N(C)CC(=O)O/N=C(\N)c2cccc(Br)c2)cc1 | 13.5%
14 | CC1CC(c2ccccc2)n2nc(NC(=O)c3ccco3)nc2N1 (stereo not drawn) | 24.6%
15 | COc1cccc(C(=O)Nc2cc(C(=O)NCc3ccc(C)cc3)ccc2N2CCC3(CC2)CC(c2cccc(Br)c2)=NO3)c1 | 10.9%
16 | C/C(O)=C(\C#N)P(=O)(c1ccccc1)c1ccccc1 | 11.6%
17 | Cc1ccc(NC(=O)CN2C(=O)S/C(=C\C(=O)Nc3ccc(Cl)cc3)C2=O)cc1 | 11.1%
18 | Cc1cc(C)c(C)c(OCC(=O)N2CCCCCC2)c1 | -4.74%
19 | Cc1ccc(C(=O)c2oc3nc(C)cc(C)c3c2N)cc1 | 2.55%
20 | Cc1c(C#N)c2ccccc2n1CC(=O)NCc1cccnc1 | -6.24%
21 | CCOC(=O)CC(=O)CSc1n[nH]c(=O)[nH]c1=O | 15.1%
22 | CC1CCc2cc(F)ccc2N1C(=O)CSc1nnc2c3cc(F)ccc3n(C)c2n1 (stereo not drawn) | 5.53%
23 | Cc1cccc(/C=C2/Sc3ccc(C(=O)N4CCOCC4)cc3NC2=O)c1 | -6.21%
24 | CN1CCN(c2ccc([N+](=O)[O-])cc2S(=O)(=O)N2CCOCC2)CC1 | -16.6%
25 | Cc1ccccc1-n1c(SCC(=O)N2CCN(c3ccccn3)CC2)nnc1N1CCOCC1 | -17.6%
26 | O=C(CSc1nc2ccc(NC(=O)CSc3nnnn3-c3ccccc3)cc2s1)Nc1ccccc1 | 0.337%
27 | CCN(c1ccccc1)S(=O)(=O)c1ccc(F)c(C(=O)O)c1 | -24.7%

Row | SMILES | hERG current change (%, negative = inhibition) at 10uM
28 | Cc1cc(C)c(C)c(S(=O)(=O)N2CCC(C(=O)NNC(=O)c3ccccc3O)CC2)c1C | 8.88%
29 | COc1ccc(CNCC(O)COc2cccc3c2OC(C)(C)C3)cc1.Cl (stereo not drawn) | -60.5%
30 | CCOC(=O)Cn1c(CN2CCOCC2)nc2c1c(=O)n(C)c(=O)n2C | 5.62%
31 | O=C(CCNS(=O)(=O)/C=C/c1ccccc1)NCCc1c[nH]c2ccccc12 | 3.88%
32 | COc1cc(C(=O)NCCC(=O)N2CCN(C)CC2)cc(OC)c1OC | 10%
33 | Cc1ccc(-c2cc(C(=O)NC3CCCC3)no2)cc1 | 16.6%
34 | COc1ccc(C2SCC(=O)N2Cc2ccccc2)cc1 (stereo not drawn) | -0.516%
35 | Fc1ccc(Oc2cnns2)cc1 | 14.3%
36 | Cc1cccc2nc(Cn3c(=O)n(CCCC(=O)NCc4ccco4)c(=O)c4ccccc43)cc(=O)n12 | -23%
37 | COc1cccc(-c2csc(/C(C#N)=C/Nc3cc4oc5ccccc5c4cc3OC)n2)c1 | 12.8%
38 | NC(=O)c1cnn(Cc2ccc(Cl)cc2)c1N | 3.73%
39 | Cc1c(Cl)cccc1NC(=O)c1nc(C)n(-c2cc(OC(C)C)c(Cl)cc2Cl)n1 | 21.6%
40 | COc1ccccc1C(=O)NCC(=O)N/N=C/c1cn[nH]c1-c1ccccc1 | -2.63%
41 | COc1ccc(CCNC(=O)CCc2nnc(Cc3ccc4c(c3)OCO4)o2)c(OC)c1 | -3.93%
42 | Cc1ccccc1C(=O)Nc1nnc(S(=O)(=O)N(C)Cc2ccco2)s1 | 6.88%
43 | CCCCc1ccc(Nc2ncnc3nc[nH]c23)cc1 | -5.61%
44 | O=C(O)C1CCCCC1C(=O)N1CCN(S(=O)(=O)c2ccc(F)cc2)CC1 (stereo not drawn) | 8.47%
45 | COc1ccc(/C=N/NC(=O)c2ccc(NC(=O)c3cccc([N+](=O)[O-])c3)cc2)c(OC)c1 | 3.23%
46 | COc1ccc(C)cc1Nc1n[n+](-c2ccccc2)c(-c2cc(OC)c(OC)cc2Br)s1.[Cl-] | -48.9%
47 | COc1ccc(NC(=O)CSc2nncc(=O)n2N)cc1OC | 15.5%
48 | O=C(CSC1=NS(=O)(=O)c2cc(Cl)ccc2N1)Nc1ccccc1F | 5.03%
49 | Cc1ccccc1NS(=O)(=O)c1ccc(C)c(C(N)=O)c1 | -3.94%
50 | CCCn1nc2cc(C(=O)NCc3ccc(OC(F)(F)F)cc3)ccc2c1OCC | 14.3%
51 | Cl.Clc1cccc(-c2ccc(CNCc3ccccn3)o2)c1 | -16.2%
52 | CCn1c(=O)n(CC(=O)N(C)Cc2ccccc2)c(=O)c2ccccc21 | -9.11%
53 | CCOc1ccccc1CNC(=O)c1cc2oc3ccccc3c2n1C | -6.27%
54 | COc1cc2[nH]c(=O)n(Cc3ccc(C(=O)NC4CCN(Cc5ccccc5)CC4)cc3)c(=O)c2cc1OC | 17.6%
